Laboratory results: paper PMC4336329 (PLoS ONE, 2015)
About 14,000 (4.5%) of roughly 310,000 compounds showed an effect of 50% or more. The effect is printed as a negative number. The list shows a part of the results.

target: human ether-à-go-go-related gene (hERG) potassium channel (human, UniProt Q12809); assay: primary screen, population patch clamp on CHO cells stably expressing hERG
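Note: peak tail current of the secondary pulse compared with the same well before compound.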

human ether-à-go-go-related gene (hERG) potassium channel, sequence (Q12809 whole entry, looked up): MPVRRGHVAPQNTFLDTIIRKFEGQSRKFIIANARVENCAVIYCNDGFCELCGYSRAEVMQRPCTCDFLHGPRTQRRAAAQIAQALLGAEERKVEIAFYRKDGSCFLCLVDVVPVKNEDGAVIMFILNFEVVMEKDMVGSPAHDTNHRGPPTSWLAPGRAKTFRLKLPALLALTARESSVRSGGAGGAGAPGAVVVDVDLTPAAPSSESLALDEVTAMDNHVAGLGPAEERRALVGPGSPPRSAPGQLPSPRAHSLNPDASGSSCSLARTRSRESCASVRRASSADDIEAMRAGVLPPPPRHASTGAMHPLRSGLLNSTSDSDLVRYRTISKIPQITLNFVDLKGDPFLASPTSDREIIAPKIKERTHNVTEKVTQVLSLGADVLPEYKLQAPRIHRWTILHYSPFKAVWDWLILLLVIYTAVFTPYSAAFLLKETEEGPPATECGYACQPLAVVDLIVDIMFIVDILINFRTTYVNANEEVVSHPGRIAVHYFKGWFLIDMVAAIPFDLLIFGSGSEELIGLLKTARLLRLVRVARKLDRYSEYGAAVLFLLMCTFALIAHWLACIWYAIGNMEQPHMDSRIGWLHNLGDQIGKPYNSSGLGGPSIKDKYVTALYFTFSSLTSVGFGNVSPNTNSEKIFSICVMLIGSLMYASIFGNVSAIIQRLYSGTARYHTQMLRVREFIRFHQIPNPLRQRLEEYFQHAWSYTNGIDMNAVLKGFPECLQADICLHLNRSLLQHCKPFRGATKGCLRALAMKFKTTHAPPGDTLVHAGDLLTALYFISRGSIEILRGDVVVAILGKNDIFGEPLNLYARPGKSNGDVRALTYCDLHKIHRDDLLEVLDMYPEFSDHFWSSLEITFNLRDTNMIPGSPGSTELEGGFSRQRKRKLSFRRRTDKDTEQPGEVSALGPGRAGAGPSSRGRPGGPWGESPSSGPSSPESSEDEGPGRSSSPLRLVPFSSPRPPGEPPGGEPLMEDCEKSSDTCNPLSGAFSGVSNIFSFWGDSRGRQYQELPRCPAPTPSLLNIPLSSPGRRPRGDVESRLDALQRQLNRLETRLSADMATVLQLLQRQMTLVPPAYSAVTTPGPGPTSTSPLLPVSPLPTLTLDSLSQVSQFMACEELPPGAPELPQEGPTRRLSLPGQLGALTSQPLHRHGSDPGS

| Structure (SMILES) | hERG current change (%, negative = inhibition) at 10uM |
| --- | --- |
| COCC(=O)NC1CCN(S(=O)(=O)c2cccc(C(C)=O)c2)CC1 | 26% |
| COc1ccc(CC(=O)Nc2ccc(S(=O)(=O)Nc3cc(C)on3)cc2)cc1 | -6.3% |
| CC(C)CC(=O)N1CCN(c2ccc([N+](=O)[O-])c(NCc3ccccc3)c2)CC1 | -10.7% |
| CCOc1ccc(/C=N/NC(=O)c2ccc(Cn3cc(Br)cn3)o2)cc1 | -56.4% |
| Cc1ccc(C(C(=O)NCC2CCCO2)N(Cc2ccccc2F)C(=O)Cn2nnc(-c3cccs3)n2)cc1 (stereo not shown) | 8.8% |
| O=C(Nc1nccs1)[C@@H]1CC=C[C@@H]2CCN(Cc3ccccc3)C(=O)[C@@H]21 | 4.85% |
| O=C1c2cc(F)ccc2OC2(CCNCC2)C12CC(c1ccccc1)=NO2 (stereo not shown) | 0.947% |
| CC1=NN(C(=O)c2ccoc2C)C(O)(C(F)(F)F)C1 (stereo not shown) | 10% |
| COc1ccc(CC2(CO)CCN(S(=O)(=O)c3c(C)nn(C)c3C)CC2)cc1 | 7.76% |
| CC(=NCCc1c[nH]c2ccccc12)c1c(O)n(Cc2ccccc2)c(=O)[nH]c1=O | 0.859% |
| COc1cc(C2=CCN(C(C)=O)CC2)ccc1OC(C)=O | 14.8% |
| COc1cc(S(=O)(=O)Nc2ccncc2)ccc1F | 49.5% |
| CC(=O)Oc1ccccc1-c1nc(/C=C/c2ccccc2)no1 | 14.3% |
| CCOC(=O)C1CCN(c2ccccc2CN2CCN(c3ccccc3OCC)CC2)CC1 | -46.3% |
| Cc1cc(C(=O)N/N=C2/CC(C)CC(C)(C)C2)c(C)o1 (stereo not shown) | -8.27% |
| CCCC(=O)Nc1ccc(NC(=O)Cc2ccccc2)cn1 | -0.677% |
| COc1ccccc1CNC(=O)Cn1nnnc1CN(C)C(C)C | 12.6% |
| COc1cccc(CC(=O)OCc2csc(CC(=O)Nc3ccccc3C)n2)c1 | 2.62% |
| Cc1ccc(C(=O)N2CCN(c3ccc(F)cc3)CC2)cc1S(=O)(=O)N1CCCCC1 | -54% |
| COc1ccc(/C(O)=C2/C(=O)C(=O)N(c3ncccn3)C2c2ccc(OC)c(OC)c2)cc1 (stereo not shown) | -2.51% |
| Cc1cc(C)c(C)c(OCC(=O)N2CCOCC2)c1 | 9.36% |
| CNC(=O)COC(=O)c1nc(-n2nc(C)cc2C)ccc1Cl | 3.29% |

| Structure (SMILES) | hERG current change (%, negative = inhibition) at 10uM |
| --- | --- |
| O=C(c1ccc(CS(=O)(=O)c2ccc(Br)cc2)o1)N1CCCCCC1 | -22% |
| COCCOC1CCN(C(=O)C2CCC(=O)N(CCc3ccc(OC)cc3)C2)CC1 (stereo not shown) | 37.2% |
| C1CCCN(C2CCNCC2)CC1.Cl | 29.3% |
| CN1C(=O)C2(OCCCO2)c2ccccc21 | 24.4% |
| Cc1ccnc(NC(=O)c2ccc(Cl)c(NC(=O)C(C)Oc3ccccc3)c2)c1 (stereo not shown) | 1.41% |
| O=C(NCCc1ccccc1)C1CCC(=O)N(CCCN2CCCC2=O)C1 (stereo not shown) | 5.82% |
| COc1ccc2nc(Nc3nc(C)c(CCC(C)C)c(=O)[nH]3)nc(C)c2c1 | -24.9% |
| Cc1cc(C)c2sc(N(CCCN(C)C)C(=O)c3ccc(S(=O)(=O)N(C)C4CCCCC4)cc3)nc2c1.Cl | -81.4% |
| O=C1CC(=O)N(c2ccccc2)N1c1ccccc1 | 3.41% |
| COc1cccc(-c2ncc3ccccn23)c1.O=C(O)C(=O)O | -5% |
| CCn1c(=O)n(CC)c2cc(S(=O)(=O)Nc3c(C)cccc3C)ccc21 | -1.8% |
| CCc1nn(C(C)C(=O)N(C)Cc2ccccc2)c(=O)c2cc3occc3n12 (stereo not shown) | 12.2% |
| O=C(O)c1cccc(NC(=O)c2ccc3c(c2)C(=O)N(C2CCCCC2)C3=O)c1 | 8.62% |
| Cc1cccc(NS(=O)(=O)c2ccc(C(C)(C)C)cc2)n1 | 12.5% |
| Cc1ccc(Cl)c(NC(=O)CN2CCN(C=O)CC2)c1 | 2.38% |
| COc1ccc(CCN(C(=O)C(F)(F)F)C(C(=O)NC2CCCCC2)c2ccc(C)s2)cc1 (stereo not shown) | 5.37% |
| CN(C)c1cccc2c1C(=O)c1ccccc1C2=O | -14.1% |
| Cc1c(C(c2ccccc2)c2c(C)n(C)n(-c3ccccc3)c2=O)c(=O)n(-c2ccccc2)n1C | 7.89% |
| CCOc1ccccc1N1CCN(C(=O)CN2C(=O)NC3(CCCC3)C2=O)CC1 | -2.82% |
| Fc1cccc(F)c1/C=N/NC(=S)Nc1cccnc1 | -14.3% |
| CCOC(=O)c1ccc2c(c1)[n+](CC)c(C)n2-c1ccccc1.[I-] | 12.9% |
